Among all 340,000 compounds or so, about 6,900 (2%) were called active. Rule as the data show it: active = inhibition above about 30%; inactive = below that, where a call was filed. The list shows a part of the results, in another mix than the full data. Where no call is shown, the source filed none.
Target: D(2) dopamine receptor (Homo sapiens) (UniProt P14416)
Experiment: HTS Assay for Allosteric Antagonists of the Human D2 Dopamine Receptor: Primary Screen for Antagonists; also: 0% is about no effect
Details: HEK293 TREx D2 cells, calcium flux, dopamine EC80; at 10 µM; stronger effect = higher value
Procedure, shortened: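 Tetracycline-induced HEK293 T-REx cells expressing D2 force-coupled to calcium signalling were dye-loaded, exposed to compound for 180 s, then challenged with an EC80 of dopamine; calcium flux was followed kinetically for a further 180 s.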

Sequence of UniProt P14416 (P14416 whole entry, looked up): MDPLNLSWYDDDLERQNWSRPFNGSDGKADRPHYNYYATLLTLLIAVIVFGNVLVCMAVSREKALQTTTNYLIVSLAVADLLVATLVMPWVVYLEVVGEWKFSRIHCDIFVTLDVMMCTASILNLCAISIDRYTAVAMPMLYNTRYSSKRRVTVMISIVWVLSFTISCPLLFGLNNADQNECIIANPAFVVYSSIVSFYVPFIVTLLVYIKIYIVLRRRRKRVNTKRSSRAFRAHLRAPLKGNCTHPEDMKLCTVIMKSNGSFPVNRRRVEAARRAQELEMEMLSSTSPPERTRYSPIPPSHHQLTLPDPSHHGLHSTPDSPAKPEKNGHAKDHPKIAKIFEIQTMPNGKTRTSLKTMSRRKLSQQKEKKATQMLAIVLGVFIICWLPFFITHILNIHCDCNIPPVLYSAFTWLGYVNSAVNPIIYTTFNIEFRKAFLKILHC

Going from `Cc1cc(C)cc(NC(=O)CSCn2nnc3c(=O)[nH]c(Cc4ccc(F)cc4)nc32)c1` to `CCc1cc(C(=O)Nc2cnn(Cc3ccc(F)cc3)c2)no1`, the inhibition rises from -9.22% to -8.29%.

First: COc1ccc(OC)c(CCNC(=O)c2cc3c(-c4ccccc4F)nn(C)c3s2)c1
Second: COc1ccc(CNC(=O)c2cc3ccccn3n2)c(OC)c1
The inhibition of the first is lower: -15.3% for the first, 1.98% for the second.

First: COc1ccc(C)cc1NS(=O)(=O)c1ccc2c(c1)[C@H]1C=CC[C@H]1[C@@H](c1cccc(Cl)c1)N2
Second: COc1ccc(Nc2ccc3cc(S(=O)(=O)N4CCCC4)ccc3n2)cc1Cl
The inhibition of the first is lower: -27.6% for the first, -4.66% for the second.

Compared with `Cc1cccc(NC(=O)Cn2cc(S(=O)(=O)c3ccc(F)cc3)c(=O)c3cc4c(cc32)OCO4)c1`, `CCOc1ccc2c(c1)c(=O)c(S(=O)(=O)c1ccc(C)cc1)cn2CC(=O)Nc1ccc(C)cc1` is lower in inhibition: 5.75% for the first, -0.559% for the second.

Compared with `Cc1ccc(-c2c(C(=O)N3CCN(c4cccc(C)c4C)CC3)oc(=O)c3ccccc23)cc1`, `Cc1ccc(C)c(N2CCN(C(=O)c3cccc(-n4c(C)nc5cccnc54)c3)CC2)c1` is higher in inhibition: -5.39% for the first, 1.33% for the second.

First: CC(=O)c1cccc(NC(=O)c2cnn(-c3cccc(C)c3)c2-n2cccc2)c1
Second: CC(=O)c1ccc(NC(=O)c2cccc(NC(=O)N3CCSc4ncccc43)c2)cc1
The inhibition of the first is lower: -4.84% for the first, 1.33% for the second.

First: O=C(Cn1c(-c2cccs2)cc2cc(Cl)ccc21)NCc1ccccc1
Second: CCn1c(=O)c2cc(C(=O)NCCc3cccc(C)c3)sc2c2ccccc21
The inhibition of the first is lower: -0.931% for the first, 12.5% for the second.

First: CCCSc1nc(=O)c2c(n1C)NC(=O)CC2c1cccc(F)c1F (stereo not drawn)
Second: COC(=O)c1cc(C)nc2c1c(=O)nc(SCc1cc(C)ccc1C)n2C1CC1
The inhibition of the first is higher: -8.07% for the first, -27.5% for the second.

First: CCc1ccccc1NC(=O)CN(Cc1ccccc1)S(=O)(=O)c1ccc2nc(C)sc2c1
Second: CCc1ccccc1Nc1nn2c(=O)c3ccc(C(=O)NCCc4ccccc4)cc3nc2s1
The inhibition of the first is higher: 0.714% for the first, -1.71% for the second.

First: COc1ccc(-n2nc3ccc(NC(=O)COc4ccc(C)c(C)c4)cc3n2)cc1
Second: Cc1cc2nn(-c3ccc(Cl)cc3)nc2cc1NC(=O)C(C)C
The inhibition of the first is higher: -4.6% for the first, -4.78% for the second.

First: CCOC(=O)c1c(NC(=O)CCCOc2ccc(C(C)(C)C)cc2)sc2c1CCC2
Second: CCOCCCNC(=O)c1c(NC(=O)Cc2coc3c(C)c(C)ccc23)sc2c1CCC2
The inhibition of the first is higher: 9.01% for the first, -6.53% for the second.

Going from `COc1ccc(N2CCN(C(=O)Cc3c(C(=O)O)c(C)cn3C)CC2)cc1` to `COc1ccc(N2CCN(S(=O)(=O)c3c(C)nc4scc(C)n4c3=O)CC2)cc1`, the inhibition falls from 0.456% to -8.84%.

First: Cc1ccc2oc(=O)c3cnn(CC(=O)N(C)c4ccc(F)cc4)c3c2c1
Second: CCCN(Cc1cc2cc(C)ccc2[nH]c1=O)C(=O)c1cccc(Cl)c1
The inhibition of the first is lower: -13.2% for the first, -6.71% for the second.

Compared with `CC(=O)c1ccc(NC(=O)C2CCN(S(=O)(=O)c3ccc4c(c3)CCCN4C(=O)C3CCC3)CC2)cc1`, `CC(=O)N1CCCc2cc(S(=O)(=O)N3CCC(C(=O)NCc4ccc(F)cc4)CC3)ccc21` is higher in inhibition: -9.76% for the first, -7.48% for the second.

First: CCOc1ccc(-n2c(SCC(=O)Nc3ccccc3OC)nc3c(oc4ccccc43)c2=O)cc1
Second: CCc1ccc(NC(=O)CSC2=Nc3ccccc3C3=NC(CCC(=O)NCc4ccccc4OC)C(=O)N23)cc1 (stereo not drawn)
The inhibition of the first is higher: 11.7% for the first, -6.2% for the second.

First: COc1ccccc1OCC(=O)N(Cc1ccc(N(C)C)cc1)CC1CCCO1 (stereo not drawn)
Second: COc1cc(OC)c(NC(=O)COc2ccccc2-c2nnc(-c3ccccc3)o2)cc1Cl
The inhibition of the first is lower: -0.163% for the first, 2.42% for the second.

Going from `Cc1cc(C)c(NC(=O)CSc2nc(C)cc(C)c2C#N)c(C)c1` to `Cc1cc(C)cc(N(C)S(=O)(=O)c2nnc(NC(=O)COc3ccc(C)c(C)c3)s2)c1`, the inhibition rises from 0.365% to 5.32%.

Going from `O=C(CN1Cc2ccccc2C1=O)Nc1cc(F)ccc1F` to `Cc1ccc(CNC(=O)C(C(C)C)N2Cc3ccccc3C2=O)cc1` (stereo not drawn), the inhibition rises from 1.27% to 12.6%.

First: Cc1cccc(N(C)C(=O)C(Cc2ccccc2)NS(=O)(=O)c2cccc3nsnc23)c1 (stereo not drawn)
Second: Cc1cccc(C(=O)NC2(C(F)(F)F)N=C(c3ccccc3)N(Cc3ccccc3)C2=O)c1 (stereo not drawn)
The inhibition of the first is higher: 23.3% for the first, 1.06% for the second.

First: Cc1ccc(NC(=O)C2CCCN(S(=O)(=O)c3cccc4cccnc34)C2)cc1Cl (stereo not drawn)
Second: Cc1c(F)cccc1NC(=O)C1CCCN1S(=O)(=O)c1ccc(F)cc1 (stereo not drawn)
The inhibition of the first is higher: 26.3% for the first, -15.6% for the second.

First: Cc1ccc(C(=O)Nc2cccc(C(=O)OCc3cc(=O)n4c5c(sc4n3)CCCC5)c2)cc1
Second: CC(=O)c1cccc(-n2c(=O)c3c4c(sc3n(Cc3ccccc3Cl)c2=O)CN(C(C)=O)CC4)c1
The inhibition of the first is lower: 3.4% for the first, 9.95% for the second.

First: COc1cc(OC)c(NC(=O)c2ccc3nc(C(C)C)oc3c2)cc1Cl
Second: CCc1ccccc1NC(=O)CSc1nnc(-c2cc(OC)c(OC)c(OC)c2)o1
The inhibition of the first is lower: -4.9% for the first, 1.27% for the second.

Compared with `Cc1ccc2[nH]cc(C(c3ccccc3)c3cccs3)c2c1` (stereo not drawn), `Cc1nc(-c2ccc(F)cc2)sc1CCNC(=O)c1ccccc1` is higher in inhibition: -24.9% for the first, 13.7% for the second.

Going from `COc1ccccc1CNC(=O)c1cn(C)c2ccc(S(=O)(=O)N3CCC(C)CC3)cc2c1=O` to `Cc1cccc(N2CCN(C(=O)Cn3c(=O)c4cccn4c4ccc(F)cc43)CC2C)c1` (stereo not drawn), the inhibition falls from -0.793% to -2.91%.

Compared with `CCCOC(=O)c1c(NC(=O)c2nc3ncccn3n2)sc(C(=O)OCC)c1C`, `CCOc1ccc(OCC)c(NC(=O)c2cc(C)nc3c2c(C)nn3-c2cccc(Cl)c2C)c1` is higher in inhibition: -12.9% for the first, 17.5% for the second.

Going from `COc1cc(OC)c(C2C=C(C(=O)O)Nc3ncnn32)cc1OC` (stereo not drawn) to `COc1ccc(OC)c(NC(=O)CN2C(=O)CC(c3ccco3)Sc3ccccc32)c1` (stereo not drawn), the inhibition rises from -12.3% to -5.07%.

First: Cc1ccc(C2CCN(C(=O)c3cnn(-c4ccccc4Cl)c3C3CCN(C(=O)OC(C)(C)C)CC3)C2)cc1 (stereo not drawn)
Second: Cn1nc(C(=O)N2CCN(c3ccccc3)CC2)c2c1-c1ccccc1SC2
The inhibition of the first is lower: 8.9% for the first, 9.04% for the second.

Going from `O=C(c1ccc2c(c1)OCO2)c1cn(Cc2ccc(F)cc2)c2ccccc2c1=O` to `O=C(CSc1nc2ccccc2n1CC(=O)Nc1ccc(F)cc1F)Nc1ccc(F)cc1`, the inhibition falls from 7.65% to 2.38%.

Compared with `CCCCN(CC)C(=O)Cn1c(=O)n(-c2ccc(OCC)cc2)c(=O)c2c3c(sc21)CCC3`, `CCOc1ccc(NC(=O)Cn2c(=O)n(CCc3ccccc3)c(=O)c3c4c(sc32)CN(C(C)=O)CC4)cc1` is higher in inhibition: -3.21% for the first, -2.07% for the second.

Compared with `Cn1c(=O)c2sccc2n2c(CCCC(=O)Nc3ccc(F)cc3F)nnc12`, `CNS(=O)(=O)c1cn(CC(=O)Nc2ccc(F)cc2F)cc1S(=O)(=O)NC` is lower in inhibition: 5.38% for the first, -1.97% for the second.

Going from `COCCCNc1ncnc2c1c(-c1ccccc1)cn2-c1ccc(C)c(Cl)c1` to `Cc1c(Cl)cccc1NC(=O)CN1C(=O)c2ccccc2Sc2ncccc21`, the inhibition falls from 6.57% to -15.3%.

Going from `O=C(COc1ccc(Cl)cc1)Nc1cc(-c2ccccc2)no1` to `COc1ccc(C(=O)NCC(c2ccco2)S(=O)(=O)c2ccccc2)cc1` (stereo not drawn), the inhibition falls from -1.81% to -13.6%.

First: COc1ccc2c(c1)c1c(c(=O)n(-c3ccccc3C)c(=O)n1Cc1ccccc1C)n2C
Second: COc1ccc2oc(=O)c(C(=O)NCCc3c(C)[nH]c4c(C)cccc34)cc2c1
The inhibition of the first is higher: 6.58% for the first, -14.1% for the second.

First: CCOCCCNC(=O)c1cnc2sc(N3CCCCCC3)nn2c1=O
Second: CCN(c1ccc(OC)cc1)S(=O)(=O)c1c(C(=O)N2CCCCCC2)c(C)n(C)c1C
The inhibition of the first is lower: 11.1% for the first, 16.4% for the second.

Going from `Cc1nn(-c2ccccc2)c(OC(=O)c2ccc(Br)cc2)c1S(=O)(=O)c1ccccc1` to `CN(C(=O)CSc1cn(CC(=O)N2CCCCCC2)c2ccccc12)c1ccccc1`, the inhibition rises from -7.23% to 12.9%.

First: Cc1ccc(CC(=O)N(Cc2nc(-c3ccc(C)cc3)no2)C(C)C)cc1
Second: COc1ccc(-n2c(SCc3nc(-c4ccc(C)cc4)no3)nnc2-c2ccncc2)cc1
The inhibition of the first is higher: -2.27% for the first, -12.1% for the second.

First: O=C(NC1CCCCC1)c1ccc(Cn2c(SCc3cccc(F)c3)nc3cccnc32)cc1
Second: Cc1ccc(N2CC(c3nnc(Cc4ccc(Cl)cc4)o3)CC2=O)cc1 (stereo not drawn)
The inhibition of the first is higher: 14.1% for the first, -1.83% for the second.

First: CCCCNc1sc(S(=O)(=O)CC)nc1S(=O)(=O)c1ccc(C)cc1
Second: Cc1cccc(NC(=O)C2CCC(CNS(=O)(=O)c3ccc4c(c3)CCCC(=O)N4)CC2)c1C (stereo not drawn)
The inhibition of the first is higher: 6.14% for the first, -2.75% for the second.

Going from `Cc1ccc(-c2c(CN3CCN(c4cc(Cl)ccc4C)CC3)csc2C)cc1` to `CCOC(=O)c1c(C)oc2nc(C)nc(N3CCN(c4ccc(C)cc4C)CC3)c12`, the inhibition falls from -0.8% to -3.83%.

First: CC(=O)N1CCc2c(sc3c2c(=O)n(-c2ccccc2Cl)c(=O)n3C)C1
Second: CCOc1cc2[nH]c(=O)n(CCC(=O)N3CCN(c4cccc(Cl)c4)CC3)c(=O)c2cc1OCC
The inhibition of the first is higher: -12% for the first, -19.8% for the second.

Going from `CCN1CCOC(=O)C1CC(=O)Nc1ccccc1C(F)(F)F` (stereo not drawn) to `COC(=O)c1cc(NC(=O)CCS(=O)(=O)c2cc(Br)cc3c2N(C(=O)C2CC2)CC3)cc(C(=O)OC)c1`, the inhibition falls from -2.28% to -14.5%.

In the case of `CCN1C(=O)C(CC(=O)Nc2ccc(Cl)cc2)N(NC(=O)c2ccncc2)C1=S` (stereo not drawn), the inhibition is reported as active: 31.1%.
For `COc1cc(OC)cc(C(=O)NCC(=O)N2CCCCCCC2)c1`, the inhibition was active: 33.6%.
For `CC(=O)c1cccc(S(=O)(=O)N2CCC(C(=O)OC3CCOC3=O)CC2)c1` (stereo not drawn), the inhibition was active: 43.4%.
In the case of `Cc1cc(SCC(=O)N(C)c2c(N)n(Cc3ccccc3)c(=O)[nH]c2=O)nc2ccccc12`, the inhibition is reported as active: 38.2%.
For `CCCN(CCC)CCNC(=O)C1CCN(S(=O)(=O)c2cccc3nsnc23)CC1`, the inhibition was active: 37.5%.
With `COc1ccc(S(=O)(=O)NCc2cn3c(C)csc3n2)cc1F` the inhibition was active: 31.7%.
In the case of `CCOC(=O)c1ccc(N(C(=O)c2ccco2)C(C(=O)NC2CCCC2)c2ccncc2)cc1` (stereo not drawn), the inhibition is reported as active: 35.8%.
`CCC(=O)Nc1sc2c(c1C(N)=O)CCN(Cc1ccccc1)C2` was tested, and the inhibition was active: 38.1%.
`COC(=O)C1CCN(Cc2cn(-c3ccccc3)nc2-c2ccc3c(c2)OCO3)CC1` was tested, and the inhibition was active: 81.9%.
For `O=c1/c(=C\c2cc([N+](=O)[O-])cc([N+](=O)[O-])c2O)sc2nc3ccccc3n12`, the inhibition was active: 31%.
For `O=Cc1ccc(OCC(=O)NCC2CCCO2)cc1` (stereo not drawn), the inhibition was active: 30.1%.
